# Measurements: PubChem BioAssay AID1345082 (National Center for Advancing Translational Sciences (NCATS), 2018)
# Among all 94,000 compounds or so, about 4,000 (4.3%) were called active. The inconclusive results got no clear call from the source; some entries with a clear call stand among them for comparison. Calls follow the shape of the dose curve; as a rule, active = well fitted inhibition curve with a large enough effect; inconclusive = small, poorly fitted or top-dose-only effect; inactive = no such curve, though single readings can be large or run the other way. Where the call is inconclusive, the potency comes from a doubtful curve fit.
# Test: Cytotoxic Profiling in NIH 3T3 Cell Line of Diverse Libraries Using Quantitative High-Throughput Screening; also: nearly all actives have a fitted effect of over 55% in size
# Settings: NIH 3T3 viability, CellTiter-Glo ATP luminescence, 48-72 h; activity change, negative = cytotoxicity: at 96.7 µM (top of the series) unless noted; series mostly up to 96.7 µM
# In short: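 Cytotoxicity is measured as loss of cellular ATP: NIH 3T3 cells (400/well) are exposed to compound for 48 or 72 hr at 37 °C, then CellTiter-Glo luminescence is imaged after 10 min at room temperature.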
# % is scaled to controls: 0 for no effect and ±100 for the full control effect; potency is read from the fitted curve at half-maximal effect; tags tell the direction and shape of the fitted curve.
SMILES,"activity change, negative = cytotoxicity",Potency
Cc1cccc(N2Cc3c(NCCCO)ncnc3N(C)CC2=O)c1,inactive: -26.7%,–
CN(Cc1ccccc1)c1ncccc1CNc1ccc(C#N)cn1,–,"inconclusive: 50.1 µM [inhibitor, partial curve, poor fit]"
O=C(NCC1CC1)C1CCN(c2nccc(Nc3ccccc3Cl)n2)CC1,–,active: 31.6 µM
COc1cccc(CN2CCc3c(cc(C(=O)Nc4ccc(C)cc4C)n3C)C2)c1,–,"inconclusive: 44.7 µM [inhibitor, partial curve, poor fit]"
Oc1ccccc1-c1cc(C2=CCOCC2)c2cncn2c1,–,active: 63.1 µM
CC(C)C[C@@H]1N[C@H](C(=O)NCc2ccc(C(F)(F)F)cc2)Cc2c[nH]c3cccc1c23,–,active: 28.2 µM
C[C@@H]1CN(C(=O)CC2CCN(Cc3ccccc3)CC2)CC[C@]1(C)O,inactive: -4.33%,–
N#Cc1ccc(CN2CCC3(CC2)CC(c2cccc(C(F)(F)F)c2)=NO3)cc1,–,active: 28.2 µM
Clc1cccc(-c2noc(-c3ccc(NCC4COCCO4)nc3)n2)c1 (configuration not stated),inactive: -27.7%,–
COCCC(=O)N1Cc2ccccc2OC2(CCN(C(C)C)CC2)C1,inactive: -24.7%,–
CC(C)COC(=O)N1C[C@H](C(N)=O)[C@H]2c3ccccc3N(CC3CC3)C(=O)[C@]21C,–,"inconclusive: 50.1 µM [inhibitor, partial curve, poor fit]"
COc1ccc(Nc2ccnc(N3CCC(C(=O)NCc4ccccc4OC)CC3)n2)cc1,–,active: 31.6 µM
Cc1ccc(-c2cn3c(n2)CO[C@@H](CNCc2ccc(Cl)cc2)C3)cc1,–,active: 44.7 µM
O=C(NCc1ccccc1F)C1CCN(Cc2ccccc2-c2cccnc2)CC1,–,"inconclusive: 50.1 µM [inhibitor, partial curve, poor fit]"
CCN1c2cc(C(=O)Nc3ccc4c(c3)OCCO4)ccc2C(=O)N2CCCCC21 (configuration not stated),–,active: 25.1 µM
Cc1ccc(C(=O)N2CCCN(c3cc(-c4ccc(Cl)cc4)[nH]n3)CC2)s1,–,"inconclusive: 44.7 µM [inhibitor, partial curve]"
O=C(NCCn1cccc1-c1nc(-c2ccc3c(c2)OCO3)no1)c1ccccc1F,inactive: -15.3%,–
O=C(c1ccc(F)cc1Cl)N1CCN(c2cc(-c3ccc(F)cc3)[nH]n2)CC1,–,"inconclusive: 39.8 µM [inhibitor, partial curve, poor fit]"
COc1ccc(-c2noc(CN3CCCCC3c3cccc(F)c3)n2)c(OC)c1OC (configuration not stated),–,"inconclusive: 50.1 µM [inhibitor, partial curve, poor fit]"
CC(C)NC(=O)c1ccccc1OCC1CCCN(CC2=Cc3ccccc3OC2)C1 (configuration not stated),–,"inconclusive: 44.7 µM [inhibitor, partial curve, poor fit]"
O=S(=O)(c1cc(F)cc(F)c1)N1CCCC(Cn2c(C3CC3)nc3cccnc32)C1 (configuration not stated),–,active: 39.8 µM
CCN1CCN(C(=O)c2cn3cc(-c4ccc(C)cc4)sc3n2)CC1,–,"inconclusive: 50.1 µM [inhibitor, partial curve, poor fit]"
Cc1ccc(-c2ccc3nnc(CNC(=O)c4cc(F)ccc4Cl)n3n2)cc1,–,"inconclusive: 44.7 µM [inhibitor, partial curve, poor fit]"

SMILES,"activity change, negative = cytotoxicity",Potency
O=C(O)c1ccc(CN2CC[C@H](c3nnc(-c4ccc(Cl)cc4)o3)C2)cc1,–,"inconclusive: 56.2 µM [inhibitor, full curve, poor fit]"
COc1ccc(-n2nc3n(c2=O)CCN(Cc2ccsc2)C3)cc1,–,active: 31.6 µM
CN1CC(=O)N(c2ccccc2F)Cc2c1ncnc2N1CCN(c2ccccn2)CC1,–,"inconclusive: 44.7 µM [inhibitor, partial curve]"
COc1ccc2cc1Nc1ccc(cc1)C[C@H](NCc1ccc(O)cc1)C(=O)N(C)[C@H](C(=O)NCCOc1ccccc1)C2,–,"inconclusive: 50.1 µM [inhibitor, partial curve, poor fit]"
COc1ccc(C)cc1NC(=O)N1CCCC(Cn2c(C3CC3)nc3cccnc32)C1 (configuration not stated),–,"inconclusive: 35.5 µM [inhibitor, partial curve, poor fit]"
O=S(=O)(NCCc1noc(-c2ccccc2)n1)c1ccc2c(c1)OCCO2,–,"inconclusive: 44.7 µM [inhibitor, partial curve]"
COc1ccccc1CNC[C@H]1O[C@H](Cc2cc(CN(C)Cc3ccccc3)on2)CC[C@@H]1O,inactive: -25.1%,–
COCC1CN(S(=O)(=O)c2cc(F)ccc2C)CC12CCNCC2 (configuration not stated),inactive: -27%,–
COc1ccc(F)cc1-c1ccc(CN2CCCCC2C(=O)NCc2cccs2)cc1 (configuration not stated),–,active: 12.6 µM
CCOCCn1c(=O)[nH]c2cc(C(=O)NCCN3CCCC3=O)ccc21,inactive: 1.39%,–
Cc1ccc(CNC(=O)N2CCCN(C(=O)C3CC3)C(c3ccccc3)CC(=O)NCC2)cc1 (configuration not stated),inactive: -23.1%,–
COc1cc(OC)c(NC(=O)CN2C(=O)NC(c3ccc(C)cc3)C3=C2COC3=O)cc1Cl (configuration not stated),–,"inconclusive: 39.8 µM [inhibitor, full curve, poor fit]"
CCOc1cccc(CNC(=O)CCC2CCN(S(=O)(=O)c3ccccc3)CC2)c1,–,"inconclusive: 35.5 µM [inhibitor, partial curve, poor fit]"
Cc1cc(C)cc(NC(=O)Cn2c(-c3cccc(Cl)c3)nc(C)c(CCO)c2=O)c1,inactive: -11.7%,–
COc1ccc(CCc2nc3nccc(-c4ccc(F)cc4OC)n3n2)cc1,–,"inconclusive: 70.8 µM [inhibitor, single point]"
c1ccc2c(CN3CCC[C@H]3c3nc(-c4ccnc(N5CCOCC5)c4)no3)c[nH]c2c1,–,"inconclusive: 89.1 µM [inhibitor, partial curve]"
CNC(=O)c1cc(C2CC2)nc2onc(C3CCCN(C(=O)c4ccc(C)cc4)C3)c12 (configuration not stated),–,"inconclusive: 50.1 µM [inhibitor, partial curve, poor fit]"
COc1ccc(C2(C(=O)N3CCC(Cc4nc(-c5ccc(F)cc5)no4)CC3)CC2)cc1,–,"inconclusive: 28.2 µM [inhibitor, partial curve, poor fit]"
Cc1ccc(Cn2cc(-c3ccncc3)cc2C(=O)N2CCCCCC2)cc1,–,"inconclusive: 50.1 µM [inhibitor, partial curve, poor fit]"
O=C(CO)N1CCCC(N2CCN(c3cccc(C(F)(F)F)c3)CC2)C1 (configuration not stated),–,"inconclusive: 44.7 µM [inhibitor, partial curve, poor fit]"
O=C(Cn1c(=O)oc2ccccc21)N1CCCC(Cc2noc(-c3ccncc3)n2)C1 (configuration not stated),–,"inconclusive: 50.1 µM [inhibitor, partial curve, poor fit]"
O=C(c1cccc(OC2CN(Cc3cccnc3)C2)c1)N1CCCC1,inactive: 4.83%,–
COC(=O)CNC(=O)c1ccc2nnc(-c3cc(F)ccc3F)n2c1,inactive: -14.6%,–

SMILES,"activity change, negative = cytotoxicity",Potency
O=C(NCC1CCCO1)Nc1cccc(-c2nnc3n2CCCC3)c1 (configuration not stated),inactive: -7.71%,–
COCCNC(=O)C1CCCN(Cc2cccc(-c3ccsc3)c2)C1 (configuration not stated),–,"inconclusive: 50.1 µM [inhibitor, partial curve, poor fit]"
c1ccc(-c2nc3c(c(NCC4OCCc5ccccc54)n2)CCNC3)nc1 (configuration not stated),–,active: 39.8 µM
Cc1nn(Cc2ccccc2)c(C)c1[C@@H]1C=C[C@@H](NC(=O)c2cccs2)C1,–,"inconclusive: 79.4 µM [inhibitor, partial curve]"
Cc1ccc(CN2C[C@@H]3C(=O)N(Cc4ccc5c(c4)OCO5)C(=O)[C@@H]3C2)c(C)c1,–,"inconclusive: 44.7 µM [inhibitor, partial curve, poor fit]"
CCn1cc(CN2CCCN(S(C)(=O)=O)C(c3ccccc3)CC(=O)NCC2)c(C)n1 (configuration not stated),inactive: -1.67%,–
CN(C)C[C@@H]1CN(S(C)(=O)=O)C[C@H]1NC(=O)c1ccccc1C(F)(F)F,inactive: -9.46%,–
Cc1noc2c(NC3CCN(C)CC3)cc(-c3ccccn3)nc12,–,"inconclusive: 28.2 µM [inhibitor, full curve, poor fit]"
COc1ccccc1-c1ccnc(-c2nnc(C)n2C2CCCCC2)c1,–,"inconclusive: 79.4 µM [inhibitor, partial curve]"
CC(C)(C)c1nnc2ccc(C(=O)NCCc3ccccc3)cn12,–,"inconclusive: 100 µM [inhibitor, partial curve]"
Cn1c(CN2CCC(O)CC2)nnc1C1CCCN(Cc2ccccn2)C1 (configuration not stated),inactive: 1.76%,–
O=C1CN(Cc2cccc(-c3ccsc3)c2)CCN1c1cc(Cl)ncn1,–,"inconclusive: 39.8 µM [inhibitor, partial curve, poor fit]"
COc1ccc(S(=O)(=O)N2CCc3c(C(=O)Nc4cccc(C)c4)cccc32)cc1,–,"inconclusive: 20 µM [inhibitor, full curve, poor fit]"
CCn1nccc1C(=O)NCCn1ccn2nc(-c3ccc(C)c(C)c3)cc2c1=O,inactive: -28.6%,–
COc1ccccc1Nc1ccnc(N2CCC(C(=O)N3CCOCC3)CC2)n1,–,"inconclusive: 50.1 µM [inhibitor, partial curve, poor fit]"
Cc1cccc(OCCc2noc(C3CCN(C(=O)NCc4ccccc4)C3)n2)c1 (configuration not stated),–,"inconclusive: 44.7 µM [inhibitor, partial curve, poor fit]"
COc1ccc(CNC(=O)NCC2Cn3cccc3CN2C)cc1 (configuration not stated),inactive: 1.33%,–
COCC(=O)N[C@@H]1CN(Cc2ccc(C#N)cc2)CC[C@@H]1c1nc(C)no1,inactive: 0.791%,–
COc1cc(NC(=O)Cn2c(N(C)Cc3ccccc3)nc(C)cc2=O)cc(OC)c1OC,–,"inconclusive: 12.6 µM [inhibitor, full curve, poor fit]"
CC1(C(=O)NCc2cnccn2)CCCc2cnc(NCc3ccccc3)nc21 (configuration not stated),–,active: 89.1 µM
CO[C@H]1CN(C2CCN(S(=O)(=O)N(C)C)CC2)[C@H]1c1ccncc1,inactive: -16.7%,–
